# Read counts are not given, so values of variants with three or more changes are uncertain.
# B1: LINE1-mini (parent)
# chain: GGCAGAGCUCAACACAGCGUGGCAAAGUGGCUGUGGCUAGACUGCC
# Variants of: B1
# Assay: self-cleavage, relative activity (ratio to wild type); higher = more cleavage; in vitro, sequencing; the parent is a self-cleaving ribozyme
row,Variant,self-cleavage
1,GGCAGAGCACAACACGGCGUGGCAAAGUGGCUGUGGCUAGAGUGCC [U9A A16G C42G],0.03
2,GGCAGAGCUCAACCCAGAAUGGCAAAGUGGCUGUGGCUAGACUGCC [A14C C18A G19A],0.04
3,UGCAGAGCUCAACAUAACGUGGCAAAGUGGCUGUGGCUAGACUGCC [G1U C15U G17A],0.04
4,GGCAGAGCUCAACACAGCAUGGUAAAGUUGCUGUGGCGAGACUGCC [G19A C23U G29U U38G],0
5,GGCAGAUCUUAACACGGCGUGGCAAAGUGGCUGUGGCUAGACUGCC [G7U C10U A16G],0.01
6,GGCAGAGCUCAACAAAGCGUGGCAAAGUGGCUGUGGCUAGGGUGCC [C15A A41G C42G],0.06
7,GGCAGAGCUAAACACAGAGUGGCAAAGUGACUGUUGCUAGACUGUC [C10A C18A G30A G35U C45U],0.01
8,GGCAGAGCUCAACAAAGCUUGGCAAAGUGUCUGUGGCUAACCUGCC [C15A G19U G30U G40A A41C],0.13
9,GGCACAGCUCAACACAGCGUGGCAAAGUGGCUAAGGCUAGAGUGCC [G5C G33A U34A C42G],0.03
10,UGCAGAGCUCAACACAGCGUGGCUAAGUGGCUUUGGCUAGACUGCC [G1U A24U G33U],0.08
11,GGCAGUGUUCAUCACAGCGUGGCAAAGUGGCUGUGGCUAGACUGCC [A6U C8U A12U],0.39
12,GGCAGAGCUCCACACAGCGUGGCGAAGUUGCUGUGGCUAGGCUGCC [A11C A24G G29U A41G],0.01
13,GGAAGAGCUCAACACAGCGUGGCAAUGUGGCUGUGGCCAGACUGCC [C3A A26U U38C],0.72
14,GGCAGAACUCAACAUAGCGCGGCAAAGUGGCUGUGGCUAGACAGCC [G7A C15U U20C U43A],0.08
15,GGCAGAGCUCAACACAGCUUGGCAAAGUCGCUGUGGCUAUACUGCA [G19U G29C G40U C46A],0.1
16,GGCAGAGCUAAACAAAGCGUGGCAACGUAGCUGUGGCUAGACUCCC [C10A C15A A26C G29A G44C],0.03
17,GGCAGGGCUCAACACAGGGUGGCAAAGUGGCGGUGACUAGCUUGCC [A6G C18G U32G G36A A41C C42U],0.01
18,GGGAGAGCUCAACACAGCGUGGAAAAGUGGCUGUGCCUAAACUGCC [C3G C23A G36C G40A],0.41
19,GGUAGAGCUCAACACAGCGUGGCAAAGUGGCUGUUUCUAGACUGCC [C3U G35U G36U],0.76

row,Variant,self-cleavage
1,GGCAGAGCUAAACACAGCGUGGCAUAGUUGCUGGGGCUUGAAUUCC [C10A A25U G29U U34G A39U C42A G44U],0.01
2,GGCAGAGCUCGACACAUCGUGGCCAAGUGGCUGUGGCUAGACUGCC [A11G G17U A24C],0.02
3,GGCACAGCUCAACACAGCGUGGCGUAGUGGCUGUGGCUAGACCGCC [G5C A24G A25U U43C],0.02
4,GGCAGAGCUCUACACAGCGUGGCAACGUGGCUGUGGCCAGACUGCC [A11U A26C U38C],0.03
5,GGCAGUGCUAAACACAGCCUUGCAAAGUGCCUGUGGUUAGACUGCC [A6U C10A G19C G21U G30C C37U],0.01
6,GGCAGAGCUCAACACAGCGGGGCACAAUGGCUGUGGCUAGACUGCC [U20G A25C G27A],1.35
7,GGCAGAGCUCAUCACAGCGUGCCAAAUUGGCUGUGGCUAGACUGCC [A12U G22C G27U],0.13
8,GGCAGAGCUCAACACAUCGUGGCAAAGUGCUUGUGGACAGACUGCC [G17U G30C C31U C37A U38C],0.01
9,GGCAGAGCUCAACACAGCGUGGCAGCUUGGCUGUAGCUAUACUGCC [A25G A26C G27U G35A G40U],0.23
10,GGCAGAGCUCAAGACAGCGUGGCAAUGUGGCUAUGGCUAUACUGCC [C13G A26U G33A G40U],0.01
11,GGCAGAUCUCAACAUAGCGUGGCUAAGUGGCUGUGGCUAGAGUGCC [G7U C15U A24U C42G],0.09
12,GGCAGAGCCCAACACAGCGUGGCAAAGUGGCUGUGGCGAAACUGCC [U9C U38G G40A],0.03
13,GGCGGAGCUCAAGACACCGUGACAAAGUGGCUGUGGCUAGUCUGCC [A4G C13G G17C G22A A41U],0.03
14,GGCACAGCUCAACACAGCGUGGCAAAUUAGCUGUGGCUAGACAGCC [G5C G27U G29A U43A],0.02
15,GGCAGAGCUCAACACAACGUGACAAAGUGGCUAUGGCUAGACUGCC [G17A G22A G33A],0.02
16,GGCAGAGCUUAACACAGCGUGGCAAAGUGGCUGUGGCUACACUGCU [C10U G40C C46U],0.01
17,UACAGAGCUCAACACAGCGUGACAGUGUGGCUCGGGCUAGACUGCC [G1U G2A G22A A25G A26U G33C U34G],0.01
18,GGCAGAGCCCAACACGGCGUGGCAAAGUGGCUGAGGCUAGACUGCC [U9C A16G U34A],0.02
19,GGCUGAGCUCAACACAGCGUGGCAAAGUGGAUGUUGCUAGACUGCC [A4U C31A G35U],0.05

row,Variant,self-cleavage
1,GGCAGAGCUCAACACAGCGUGGGUAAGUGGCUGUAGAUAGUUUGCC [C23G A24U G35A C37A A41U C42U],0.01
2,GGCAGAGCUCAGCACAGCGUGGAAUAGUGGCUGGGGCUAGACUGCC [A12G C23A A25U U34G],0.02
3,CGCAGAGCUCAACACAGACUGGCAAAUGGGCUGUGGCUAAACUGCC [G1C C18A G19C G27U U28G G40A],0.04
4,GGCACAGCUCAAGACAGCGUGGCAAAGUGGCUGUGGCUAGACUGUC [G5C C13G C45U],0.11
5,GGUAGAGCUCAACACAGCGUAGCAAAGUUGCUGUGGCUAGACUGCC [C3U G21A G29U],1.14
6,GUCAUAGCUCAACACAGCGUGGCAAAUUGGGUGUGGCUAGACUGCC [G2U G5U G27U C31G],0.02
7,GGCAGAGCUAAACACAGCUUCUAAAAGCGGCUGUGGCUAGACUGCC [C10A G19U G21C G22U C23A U28C],0
8,GGCAGAGCUCAACACAGUGUGACAGAGUGGCUUUCGCUAGACUGCC [C18U G22A A25G G33U G35C],0.03
9,GGCAGAGCUCAACACAGCGUGGCAAAGUGGCGGAGGCUAUACUGCC [U32G U34A G40U],0.04
10,GUCAGAGCUCAACACAGCGUGGCAAAAUGGCUGUGGAGAGCCUGCC [G2U G27A C37A U38G A41C],0.01
11,GGCAGAGCUCAAAACAGCGUGGCAAGGUGGCUGUGGCUGGACUGCC [C13A A26G A39G],0.07
12,GACAGACCUAAACACAGCGUAGCAAAGUGCCUGUGGGUAGACUGCC [G2A G7C C10A G21A G30C C37G],0.02
13,GGCAGGGCUCAACACAGCUUGGCAAAGUUGUUGCGGCUAGACUGCC [A6G G19U G29U C31U U34C],0.02
14,GGCAGAGCUCAACACAACGUGGCAAAUUGGCAGUGGCUAGACUGCC [G17A G27U U32A],0.11
15,GCCAGAGCUCAACACAGCGUGGCAAACUGGCCGUGGCUGGACUGCC [G2C G27C U32C A39G],0.05
16,AGGAGAGCUCAACACAGGGUGGCAAAGUGGCUGUGGCUAGACUGAC [G1A C3G C18G C45A],0.16
17,GGCAGAGAUCAACACAGCGUGGCAAAGCCGCUGAGGCUAGACUGCC [C8A U28C G29C U34A],0.19
18,GGGAGAGCUAACCACAGUGUGGCAAAGUGGCUGUGGCUAGAGUGCC [C3G C10A A12C C18U C42G],0.01
